Experimental data: PMC1793994
Results are given in words; binding and its absence hold for the method and conditions named. In cells and extracts the contact can be indirect. Some entries that bind do so weakly or less than the wild type. Sequences can lack the tags named with a protein. Values belong to the binder of their own block, whether it stands above or below them.

How the values were obtained:
Myc-EHD3 (human) = molecular target: T1, Myc-EHD3 (human) (UniProt Q9NZN3); test: co-IP; HeLa cells, Myc- and GFP-tagged EHD proteins; data not shown
T1 sequence: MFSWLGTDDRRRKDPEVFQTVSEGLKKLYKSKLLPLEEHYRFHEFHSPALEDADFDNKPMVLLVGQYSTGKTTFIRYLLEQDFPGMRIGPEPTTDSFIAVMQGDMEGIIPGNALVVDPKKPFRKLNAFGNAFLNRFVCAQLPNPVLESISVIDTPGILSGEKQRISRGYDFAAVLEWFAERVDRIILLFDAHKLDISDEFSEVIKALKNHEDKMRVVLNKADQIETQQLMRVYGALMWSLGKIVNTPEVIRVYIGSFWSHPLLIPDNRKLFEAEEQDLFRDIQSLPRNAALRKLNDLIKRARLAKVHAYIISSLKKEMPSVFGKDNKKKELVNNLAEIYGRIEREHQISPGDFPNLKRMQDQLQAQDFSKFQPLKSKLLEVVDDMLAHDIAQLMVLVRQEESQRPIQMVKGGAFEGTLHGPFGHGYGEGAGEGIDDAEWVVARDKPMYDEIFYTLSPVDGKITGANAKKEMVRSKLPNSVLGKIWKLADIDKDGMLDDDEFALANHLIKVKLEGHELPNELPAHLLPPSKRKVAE

Myc-EHD1 ΔEH (human) = molecular target: T2, Myc-EHD1 ΔEH (human) (UniProt Q9H4M9); test: co-IP; HEK 293T co-transfected with one Myc-EHD ΔEH and one EHD-GFP construct; same lysis buffer; lysates rocked only 1–2 hours at 4°C; IP anti-Myc (9E10), anti-GFP immunoblot
T2 sequence: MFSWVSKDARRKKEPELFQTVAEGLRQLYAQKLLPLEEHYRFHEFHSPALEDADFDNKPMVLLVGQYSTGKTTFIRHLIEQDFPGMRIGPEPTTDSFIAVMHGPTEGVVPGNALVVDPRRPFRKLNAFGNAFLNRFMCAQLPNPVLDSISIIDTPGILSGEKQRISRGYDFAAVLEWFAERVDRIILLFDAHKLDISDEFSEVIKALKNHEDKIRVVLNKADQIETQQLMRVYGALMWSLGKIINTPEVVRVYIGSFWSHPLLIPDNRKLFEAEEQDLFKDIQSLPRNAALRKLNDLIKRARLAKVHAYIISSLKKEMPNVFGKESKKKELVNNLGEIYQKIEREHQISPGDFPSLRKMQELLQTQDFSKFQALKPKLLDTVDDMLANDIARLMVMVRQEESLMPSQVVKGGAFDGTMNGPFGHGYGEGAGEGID

Myc-EHD2 ΔEH (human) = molecular target: T3, Myc-EHD2 ΔEH (human) (UniProt Q9NZN4); test: as above
T3 sequence: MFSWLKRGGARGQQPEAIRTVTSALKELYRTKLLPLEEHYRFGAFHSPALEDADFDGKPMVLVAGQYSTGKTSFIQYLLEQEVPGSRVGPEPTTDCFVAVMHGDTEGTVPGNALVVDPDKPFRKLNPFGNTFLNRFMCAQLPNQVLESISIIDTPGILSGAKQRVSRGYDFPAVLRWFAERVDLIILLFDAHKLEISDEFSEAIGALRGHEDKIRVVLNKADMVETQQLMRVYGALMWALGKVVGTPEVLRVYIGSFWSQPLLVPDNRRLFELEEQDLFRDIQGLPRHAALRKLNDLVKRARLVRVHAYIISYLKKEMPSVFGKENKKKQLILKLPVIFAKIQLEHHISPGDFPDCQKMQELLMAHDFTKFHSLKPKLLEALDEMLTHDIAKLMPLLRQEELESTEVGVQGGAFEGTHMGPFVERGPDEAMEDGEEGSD

Myc-EHD3 ΔEH (human) = molecular target: T4, Myc-EHD3 ΔEH (human) (UniProt Q9NZN3); test: as above
T4 sequence: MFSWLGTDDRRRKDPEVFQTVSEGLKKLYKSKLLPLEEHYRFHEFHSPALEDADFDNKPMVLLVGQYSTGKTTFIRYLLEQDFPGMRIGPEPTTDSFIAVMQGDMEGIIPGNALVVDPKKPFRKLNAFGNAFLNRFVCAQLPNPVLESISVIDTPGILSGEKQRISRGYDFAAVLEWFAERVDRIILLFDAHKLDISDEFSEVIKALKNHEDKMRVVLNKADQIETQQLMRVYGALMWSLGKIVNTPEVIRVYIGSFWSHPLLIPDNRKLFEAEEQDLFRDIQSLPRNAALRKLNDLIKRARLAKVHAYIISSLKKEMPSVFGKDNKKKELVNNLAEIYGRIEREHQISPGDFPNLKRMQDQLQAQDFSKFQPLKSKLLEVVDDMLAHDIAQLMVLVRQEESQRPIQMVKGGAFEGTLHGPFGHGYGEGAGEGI

Myc-EHD4 ΔEH (human) = molecular target: T5, Myc-EHD4 ΔEH (human) (UniProt Q9H223); test: as above
T5 sequence: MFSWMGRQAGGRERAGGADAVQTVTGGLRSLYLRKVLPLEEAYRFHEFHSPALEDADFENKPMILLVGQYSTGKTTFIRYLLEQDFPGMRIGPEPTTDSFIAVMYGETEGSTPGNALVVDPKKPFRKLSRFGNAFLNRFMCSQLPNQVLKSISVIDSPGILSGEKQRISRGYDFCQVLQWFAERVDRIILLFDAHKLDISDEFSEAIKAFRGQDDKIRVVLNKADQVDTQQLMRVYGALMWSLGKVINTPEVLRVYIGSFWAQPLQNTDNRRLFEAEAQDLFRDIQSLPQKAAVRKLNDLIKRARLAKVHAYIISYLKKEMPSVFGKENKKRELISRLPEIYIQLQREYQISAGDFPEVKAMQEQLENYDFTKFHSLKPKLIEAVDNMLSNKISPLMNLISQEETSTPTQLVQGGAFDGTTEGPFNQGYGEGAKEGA

binding (Myc-EHD3 (human)): binds
binding (Myc-EHD1 ΔEH (human)): binds
binding (Myc-EHD2 ΔEH (human)): binds weakly
binding (Myc-EHD3 ΔEH (human)): binds
binding (Myc-EHD4 ΔEH (human)): binds
B3: EHD3-GFP (protein, UniProt Q9NZN3-1 1-535)
chain: MFSWLGTDDRRRKDPEVFQTVSEGLKKLYKSKLLPLEEHYRFHEFHSPALEDADFDNKPMVLLVGQYSTGKTTFIRYLLEQDFPGMRIGPEPTTDSFIAVMQGDMEGIIPGNALVVDPKKPFRKLNAFGNAFLNRFVCAQLPNPVLESISVIDTPGILSGEKQRISRGYDFAAVLEWFAERVDRIILLFDAHKLDISDEFSEVIKALKNHEDKMRVVLNKADQIETQQLMRVYGALMWSLGKIVNTPEVIRVYIGSFWSHPLLIPDNRKLFEAEEQDLFRDIQSLPRNAALRKLNDLIKRARLAKVHAYIISSLKKEMPSVFGKDNKKKELVNNLAEIYGRIEREHQISPGDFPNLKRMQDQLQAQDFSKFQPLKSKLLEVVDDMLAHDIAQLMVLVRQEESQRPIQMVKGGAFEGTLHGPFGHGYGEGAGEGIDDAEWVVARDKPMYDEIFYTLSPVDGKITGANAKKEMVRSKLPNSVLGKIWKLADIDKDGMLDDDEFALANHLIKVKLEGHELPNELPAHLLPPSKRKVAE

binding (Myc-EHD3 (human)): binds
binding (Myc-EHD1 ΔEH (human)): binds
binding (Myc-EHD2 ΔEH (human)): binds weakly
binding (Myc-EHD3 ΔEH (human)): binds
binding (Myc-EHD4 ΔEH (human)): binds
B4: EHD4-GFP (protein, UniProt Q9H223 1-541)
chain: MFSWMGRQAGGRERAGGADAVQTVTGGLRSLYLRKVLPLEEAYRFHEFHSPALEDADFENKPMILLVGQYSTGKTTFIRYLLEQDFPGMRIGPEPTTDSFIAVMYGETEGSTPGNALVVDPKKPFRKLSRFGNAFLNRFMCSQLPNQVLKSISVIDSPGILSGEKQRISRGYDFCQVLQWFAERVDRIILLFDAHKLDISDEFSEAIKAFRGQDDKIRVVLNKADQVDTQQLMRVYGALMWSLGKVINTPEVLRVYIGSFWAQPLQNTDNRRLFEAEAQDLFRDIQSLPQKAAVRKLNDLIKRARLAKVHAYIISYLKKEMPSVFGKENKKRELISRLPEIYIQLQREYQISAGDFPEVKAMQEQLENYDFTKFHSLKPKLIEAVDNMLSNKISPLMNLISQEETSTPTQLVQGGAFDGTTEGPFNQGYGEGAKEGADEEEWVVAKDKPVYDELFYTLSPINGKISGVNAKKEMVTSKLPNSVLGKIWKLADCDCDGMLDEEEFALAKHLIKIKLDGYELPSSLPPHLVPPSHRKSLPKAD

The next lines start with the binder.

B1: EHD1-GFP (protein, UniProt Q9H4M9 1-534)
chain: MFSWVSKDARRKKEPELFQTVAEGLRQLYAQKLLPLEEHYRFHEFHSPALEDADFDNKPMVLLVGQYSTGKTTFIRHLIEQDFPGMRIGPEPTTDSFIAVMHGPTEGVVPGNALVVDPRRPFRKLNAFGNAFLNRFMCAQLPNPVLDSISIIDTPGILSGEKQRISRGYDFAAVLEWFAERVDRIILLFDAHKLDISDEFSEVIKALKNHEDKIRVVLNKADQIETQQLMRVYGALMWSLGKIINTPEVVRVYIGSFWSHPLLIPDNRKLFEAEEQDLFKDIQSLPRNAALRKLNDLIKRARLAKVHAYIISSLKKEMPNVFGKESKKKELVNNLGEIYQKIEREHQISPGDFPSLRKMQELLQTQDFSKFQALKPKLLDTVDDMLANDIARLMVMVRQEESLMPSQVVKGGAFDGTMNGPFGHGYGEGAGEGIDDVEWVVGKDKPTYDEIFYTLSPVNGKITGANAKKEMVKSKLPNTVLGKIWKLADVDKDGLLDDEEFALANHLIKVKLEGHELPADLPPHLVPPSKRRHE
binding (Myc-EHD3 (human)): binds
binding (Myc-EHD1 ΔEH (human)): binds
binding (Myc-EHD2 ΔEH (human)): binds
binding (Myc-EHD3 ΔEH (human)): binds
binding (Myc-EHD4 ΔEH (human)): binds

B2: EHD2-GFP (protein, UniProt Q9NZN4 1-543)
chain: MFSWLKRGGARGQQPEAIRTVTSALKELYRTKLLPLEEHYRFGAFHSPALEDADFDGKPMVLVAGQYSTGKTSFIQYLLEQEVPGSRVGPEPTTDCFVAVMHGDTEGTVPGNALVVDPDKPFRKLNPFGNTFLNRFMCAQLPNQVLESISIIDTPGILSGAKQRVSRGYDFPAVLRWFAERVDLIILLFDAHKLEISDEFSEAIGALRGHEDKIRVVLNKADMVETQQLMRVYGALMWALGKVVGTPEVLRVYIGSFWSQPLLVPDNRRLFELEEQDLFRDIQGLPRHAALRKLNDLVKRARLVRVHAYIISYLKKEMPSVFGKENKKKQLILKLPVIFAKIQLEHHISPGDFPDCQKMQELLMAHDFTKFHSLKPKLLEALDEMLTHDIAKLMPLLRQEELESTEVGVQGGAFEGTHMGPFVERGPDEAMEDGEEGSDDEAEWVVTKDKSKYDEIFYNLAPADGKLSGSKAKTWMVGTKLPNSVLGRIWKLSDVDRDGMLDDEEFALASHLIEAKLEGHGLPANLPRRLVPPSKRRHKGSAE
binding (Myc-EHD3 (human)): binds weakly
binding (Myc-EHD1 ΔEH (human)): binds
binding (Myc-EHD2 ΔEH (human)): binds
binding (Myc-EHD3 ΔEH (human)): binds weakly
binding (Myc-EHD4 ΔEH (human)): binds weakly
